This is one part of the list.
system: T1, Caupolican (Caup) homeodomain DNA-binding domain; experiment: PBM E-score (8-mer, recovered from the published 9-mer minima) (E-score (dimensionless, -0.5 to 0.5)); Drosophila protein; higher = stronger relative binding preference, active = 0.31 or more
T1 sequence: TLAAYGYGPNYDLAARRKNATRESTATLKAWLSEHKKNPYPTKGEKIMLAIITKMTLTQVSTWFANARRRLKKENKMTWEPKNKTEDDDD
Protocol: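 Protein binding microarray (PBM): in vitro transcribed/translated Caupolican (Caup) homeodomain DNA-binding domain (residues 214-303) applied at 100 nM to a universal 8-mer PBM array (Agilent AMADID 015681). The 8-mer enrichment score (E-score, range -0.5 to 0.5) was computed, and each 9-mer score is the minimum E-score of its two constituent 8-mers. The E-score is the same for a 9-mer and its reverse complement; 0.31 is the stated binding threshold.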

Sequence	PBM E-score
GTTTGCTA	inactive: 0.12
GTACCCAC	inactive: -0.0396
CGAACTAG	inactive: 0.0457
CGTCTATC	inactive: 0.0194
CAGTTTCA	inactive: -0.0417
CTTGTAGA	inactive: 0.248
GGTTCCGA	inactive: -0.0584
GAACCCTC	inactive: -0.114
CATAGTAC	inactive: 0.145
ATATCCCG	inactive: 0.0584
ATCCGAAG	inactive: -0.0583
AGGCGCAA	inactive: -0.0964
TTCCGCAA	inactive: -0.00932
ATCCCACC	inactive: -0.122
CGCATTTA	inactive: 0.0602
CCCAGAGG	inactive: -0.342
AGACCGCC	inactive: -0.226
ATCACCAA	inactive: 0.0852
CCCGGACG	inactive: -0.211
TAGGGTCA	inactive: -0.0162
ACATCGAC	inactive: 0.227
AATTTACT	≥ 0.198
CAACCTTG	inactive: 0.0814
CGGTGGGC	inactive: -0.254
AGCAGTGC	inactive: -0.14

Sequence	PBM E-score
TAGGCGGA	inactive: -0.0109
TTGCGCAA	inactive: -0.00385
AAGTATGT	inactive: 0.245
CTTATTGC	inactive: -0.0488
CAGGCGCA	inactive: -0.181
AATAACAT	active: 0.348
AGAACGTG	inactive: -0.00371
CTCAGATA	inactive: 0.0695
AACTTCGA	inactive: -0.00917
AAATACGG	inactive: 0.0486
TATTCTCA	inactive: 0.0911
CAATGCCG	inactive: -0.166
GATTAGCC	inactive: -0.0031
ATACCAAT	≥ 0.164
AATTTGCC	inactive: -0.0265
CTTCGACC	inactive: -0.168
CAGCACGG	inactive: -0.0332
ACGAGTAG	inactive: -0.00334
AACTTATA	inactive: 0.176
ATCAGCGG	inactive: -0.126
CTAAGAAC	inactive: -0.0324
TCTTCGAA	inactive: -0.0617
CACATGAA	inactive: 0.226
ATAAGAAC	inactive: 0.192
GAAGGCTC	inactive: -0.216

Sequence	PBM E-score
CTGACGCA	inactive: -0.241
CCACCGTA	inactive: 0.028
AGGCTCTC	inactive: -0.224
CCCTAGTC	inactive: -0.0495
CTGTGCAA	inactive: 0.131
CCGTGACC	inactive: -0.124
CACACATA	inactive: 0.164
CAGTACTC	inactive: 0.016
GCAGTGAA	inactive: 0.0398
AACGGTGT	inactive: 0.196
AACTAATG	inactive: 0.168
ACCATTAA	inactive: 0.182
ATTCCTTA	inactive: 0.0011
AACCCAGA	inactive: -0.075
TACGTCAA	inactive: 0.0652
CCTGAGCG	inactive: -0.215
ACCCTAAG	inactive: -0.0548
CATTCATA	inactive: 0.179
GCGACCAA	inactive: -0.0185
CGCGTAAA	inactive: -0.00534
AACGGCAA	inactive: 0.024
CTAGGGCA	inactive: -0.195
AGTCTCGC	inactive: -0.0637
AAAGCCTA	inactive: -0.0407
TCTCTTCA	inactive: -0.0622

Sequence	PBM E-score
TAGGTGAA	inactive: 0.0435
CTCCCCAG	inactive: -0.17
ATGTGTTA	active: ≥ 0.323
ATGCATCC	inactive: -0.0458
GAATCCTA	inactive: 0.0166
CTTGGTGC	inactive: -0.0256
CCCGGTAC	inactive: -0.064
CCTGCACA	inactive: -0.0308
ATGCATAA	inactive: 0.118
AGCCAAAA	inactive: -0.00265
CACAATAC	inactive: 0.11
ACGTCGTC	inactive: 0.0651
TGCGTCCA	inactive: -0.0458
AGTTCGTA	inactive: 0.0806
CTTGGTTC	inactive: 0.0216
CAAACATG	active: 0.391
ACCTTGGC	inactive: -0.108
CTATGGAA	inactive: 0.0634
CTGGAAAG	inactive: -0.131
ACATATCA	active: ≥ 0.321
CGAGTGGC	inactive: -0.181
CTTCCGCA	inactive: -0.0665
CGTTGTGA	inactive: 0.0411
TCCCTACA	inactive: 0.0901
AAGCCGGG	inactive: -0.179

Sequence	PBM E-score
AAAGGGGC	inactive: -0.178
GAATACCA	inactive: 0.136
GTAGGAAC	inactive: 0.0218
TTAACCAA	inactive: 0.14
GAAACGCA	inactive: -0.105
CTCAGGGC	inactive: -0.162
CTGCCTCC	inactive: -0.195
CCCAAGTC	inactive: -0.146
CACAGAAA	inactive: -0.00373
CGGCATAA	inactive: -0.0258
GACTATGA	inactive: 0.0441
CCTCTCAC	inactive: -0.093
ATCTTCAT	inactive: 0.002
CTTGTTTC	≥ 0.302
GATGAACA	inactive: 0.196
AACGACAC	inactive: 0.291
ATCCGGAA	≥ 0.0536
ATAGTCCC	inactive: -0.085
AACTGCGT	≥ 0.002
ACATGGAT	active: 0.374
AAAATTAT	inactive: 0.163
CATCTTTA	inactive: 0.0974
ACCCTCTA	≥ -0.0428
GCACTAGA	inactive: -0.106
AACGATAG	inactive: 0.0006

Sequence	PBM E-score
ATACGTTA	inactive: 0.115
ATCAGAGC	inactive: -0.0433
CTAGCCCC	inactive: -0.204
CAAGCGAC	inactive: 0.0812
ACTCATAG	inactive: 0.119
GCTTAGCA	inactive: -0.0447
CCTCGGAA	inactive: -0.071
CCTCGTGC	inactive: -0.153
CTCAATAA	inactive: -0.0584
TCAACACA	inactive: 0.271
AGTCCAAT	inactive: 0.0121
AAAGGGTC	inactive: -0.129
AGGGCACG	inactive: -0.108
GCTATCGA	inactive: -0.161
GCGCGGCA	inactive: -0.271
TACCGTAA	inactive: 0.084
CTCCTCAC	inactive: -0.136
GTAGTCCA	inactive: 0.0163
TGTCTAAA	inactive: 0.174
CGTCCAAG	inactive: -0.214
ATCTTATC	inactive: 0.0685
GGGCGCTA	inactive: -0.255
ATCCCAAG	inactive: -0.147
ACCCACAC	inactive: -0.144
CGCAGCAA	inactive: -0.107

Sequence	PBM E-score
AAATTGCT	inactive: 0.118
AATCGTTC	inactive: 0.121
ATCTGAAG	inactive: -0.0451
AGTTGATG	inactive: 0.149
CCTGGGTC	inactive: -0.22
AAGTACAG	inactive: 0.204
GGAAGGAC	inactive: -0.0901
GAGTTAAA	inactive: 0.00793
GACGCAGA	inactive: -0.166
GAGGGCGC	inactive: -0.287
GGAGAGCA	inactive: 0.0394
CATAGATG	inactive: 0.0521
CAATGCAC	inactive: 0.146
CAGTAATA	inactive: 0.167
CGAGCGGA	inactive: -0.115
AATATGCC	inactive: -0.0171
CTTGGTAC	inactive: 0.16
CTGATTAA	inactive: 0.162
GGGACTAC	inactive: -0.0163
CATTAATG	inactive: 0.209
AGAGGCTC	inactive: -0.211
GAGATTAA	inactive: 0.0203
ATTTGTTA	inactive: 0.219
ACGGGCAG	inactive: -0.0299
CCACAGTA	inactive: 0.0797

Sequence	PBM E-score
GTATTATA	inactive: 0.176
ATGAGTTC	inactive: 0.0362
ATAACCGG	inactive: -0.0147
AGACTATG	inactive: 0.0851
CTGCAGTC	inactive: -0.0794
TCCGACCA	inactive: 0.0363
TATCAGAA	inactive: 0.0677
ATAATTGG	inactive: 0.0174
ATATGAAA	inactive: 0.119
GAGAAAAC	inactive: -0.0577
AAATTACC	inactive: 0.0881
AGAGTAGC	inactive: -0.0886
CTCAGAGC	inactive: -0.141
GAAAACGA	inactive: 0.0287
TGGTAACA	inactive: 0.249
AAAAAAAT	inactive: 0.0513
GGATAGGA	inactive: -0.00668
ACTTGGAT	≥ 0.147
TGAGTAAA	inactive: 0.0222
CGCGCCTA	inactive: -0.133
GAGCAGAA	inactive: -0.0539
ATCCGTAA	inactive: 0.0355
CAGGAATG	inactive: 0.11
CGTGGAGC	inactive: -0.198
TTAAATAA	inactive: 0.103

Sequence	PBM E-score
TCGCGCAA	≥ 0.0408
ACAAGGCG	inactive: 0.154
GAAATGGA	inactive: -0.0329
ACTATGCT	≥ 0.141
AGTTGTCG	inactive: 0.235
AACACATT	inactive: 0.264
CAACACTA	inactive: 0.177
AGGCGGCA	inactive: -0.223
CCTAAGAC	inactive: -0.0795
GGCAACCC	inactive: -0.192
CATGGTCG	inactive: 0.0771
AGATGTCG	inactive: 0.224
ACCCGCGA	inactive: -0.0509
AACTCGGG	inactive: -0.0964
ACACAGCA	inactive: 0.183
AGCGACTG	inactive: -0.0377
TAAATAGA	inactive: 0.0495
AAGACTGC	inactive: -0.0769
CATCGTCC	inactive: 0.0577
GCGGCCGA	inactive: -0.224
CAGGAGCA	inactive: -0.118
CGGTTTGA	inactive: -0.0374
ATTCTGAA	inactive: 0.0422
ATCACACG	≥ 0.212
